The campaign covered roughly 150,000 compounds. About 540 (0.36%) showed an effect of 50% or more. The list shows a part of the results.

The subject of this test is Plasmodium falciparum. Description: Primary screen in NF54 nanoGlo assay, in single point, at 2uM, 72h; a lower Z score goes with more inhibition. In kind it is functional, Erythrocyte. The settings on record: timepoint 72 hour.
As for `CCCn1ncc(C(=O)N2CCC[C@H]2COC)c1C`, the “% Inhibition” value is listed as -12% and the Z score worked out at 1.98.
In the case of `CN(C)[C@H]1CCCN(C(=O)c2ccc3c(c2)COCO3)C1`, the “% Inhibition” value is -1% and the Z score was determined as 0.18.
In the same order, the values of `COc1ccc(Cl)cc1NC(=O)Cn1c2ccccc2n2c(=O)cc(-c3cccnc3)nc12` are -16% and 1.82.
In the same order, the values of `CN1CCC(N2CCC(CN(Cc3ccncc3)C3CCOCC3)CC2)CC1` are 0% and 0.
Consider `O=C(c1cncc(-c2ccc3c(c2)CCO3)c1)N1CCOC2CCCCC21` (centres undefined), for which the “% Inhibition” value is -10% and the Z score is 1.79.
In the same order, the values of `CC(C)n1cnnc1C[C@H]1CCN(C(=O)CC2CCCCC2)C1` are -6% and 0.96.
On to `COc1ccc2cc3c(nc2c1)NCC3`, for which the “% Inhibition” value was -13% and the Z score is reported as 1.78.
In the same order, the values of `O=C(c1ccncc1)N1C[C@@H]2OCC(=O)N(Cc3ccncc3)[C@@H]2C1` are 33% and -3.69.
In the same order, the values of `CCc1cccc(OCCn2ccc(=O)c3cnn(C)c32)c1` are -2% and 0.22.
`O=C(CN1CCC2(CC1)NC(c1ccc(OC(F)(F)F)cc1)=NO2)Nc1cccc(F)c1`: the “% Inhibition” value was 25% and the Z score was -3.34.
In the same order, the values of `O=C(NC1CCCCC1O)C1(O)CCCC1` (centres undefined) are -7% and 1.15.
In the same order, the values of `OC(CNC1CCc2c(Br)cccc21)c1ccco1` (centres undefined) are 2% and -0.28.
Taken in the same sequence, the figures for `CCC1CN(S(=O)(=O)C(C)C)CCC1NC(C)c1nnc(C)o1` (centres undefined) were -14% and 1.26.
Take `Cc1cc(C)cc(C2(CNC(=O)NC[C@]3(O)CCCNC3)CCCC2)c1`: the “% Inhibition” value was -4% and the Z score amounted to 0.54.
In the same order, the values of `O=C1N[C@H](c2ccc3c(c2)OCO3)Oc2ccccc21` are -4% and 0.49.
In the same order, the values of `Cn1cccc1C(=O)NCc1nnc2cc(C(F)(F)F)ccn12` are 13% and -1.68.
In the same order, the values of `CCn1c(-c2cc(NC(=O)Cc3ccc(C)cc3)[nH]n2)c(C)c2ccccc21` are -8% and 1.12.
On to `COc1ccccc1CNC(=O)c1ccc(C)nc1C1CCN(Cc2ccco2)CC1`, for which the “% Inhibition” value is -8% and the Z score came out at 0.8.
`O=S(=O)(Cc1ccccc1)NC1CC1`: the “% Inhibition” value worked out at 1% and the Z score was -0.08.
Turning to `COc1cn(CC(=O)NC2CCCCC2)c(CN2CCc3ccccc3C2)cc1=O`, the “% Inhibition” value was -5% and the Z score is 0.57.
In the same order, the values of `O=C(c1ccnc(-c2ccccn2)n1)N1CC[C@H]2CC[C@H](O)[C@H]21` are -11% and 1.91.
Consider `CS(=O)(=O)NC1CCCC1CNC(=O)[C@@H]1C[C@H]1c1cccnc1` (some centres undefined), for which the “% Inhibition” value is given as -5% and the Z score is 0.42.
In the same order, the values of `Cc1c(Cl)ccc2c(C(=O)NC3CCC(C)CC3)cc(-c3cccnc3)nc12` (centres undefined) are -4% and 0.47.
Taken in the same sequence, the figures for `c1ccc2c(-c3cc4c(c(O[C@H]5CCOC5)c3)OCCNC4)csc2c1` were -8% and 1.61.
Taken in the same sequence, the figures for `Cc1n[nH]c(=O)c(C(=O)NCC2CCC(C)CC2)c1C` (centres undefined) were -16% and 1.96.
As for `O=C(NC1(CCO)CCCC1)c1ccc(N2CCC2)nc1`, the “% Inhibition” value is recorded as -11% and the Z score was 1.48.
As for `CC(O)CC1COCCN1C(=O)NCC(C)c1ccsc1` (centres undefined), the “% Inhibition” value is -14% and the Z score came out at 1.43.
Taken in the same sequence, the figures for `Cc1nnccc1NC(=O)N[C@@H](C)c1cc(Cl)cc2c1OCC2` were -7% and 1.08.
Taken in the same sequence, the figures for `COCCN1[C@@H]2CCN(C(=O)c3ccc(C)s3)C[C@@]2(C(=O)N2CCOCC2)CCS1(=O)=O` were -10% and 1.46.
`CN1CCC[C@H](CNS(=O)(=O)c2cc(C(N)=O)cs2)C1`: the “% Inhibition” value is -11% and the Z score stood at 1.88.
In the same order, the values of `CCC[C@@]1(C2CCN(C(=O)c3ccc4c(c3)OCCO4)CC2)NC(=O)N(CCc2ccccn2)C1=O` are -2% and 0.31.
In the same order, the values of `CCC1Oc2cc(S(=O)(=O)N3CCCC(C(=O)N(C)c4ccc(C)cc4)C3)c(C)cc2NC1=O` (centres undefined) are -20% and 2.61.
In the same order, the values of `C=CCn1nc(C(=O)O)c2c1CC[C@H](N1CCC(C(=O)N3CCCC3)CC1)C2` are -16% and 1.69.
Turning to `Cc1ccc(NC(=O)CN2CCC[C@@H]2CO)nc1`, the “% Inhibition” value is given as -4% and the Z score turned out to be 0.65.
In the same order, the values of `Cn1cnn(CC(=O)N2CCCC2C2CCCc3ccccc32)c1=O` (centres undefined) are -11% and 1.02.
As to `Cc1cc(CNC(=O)N(C)C[C@H]2COCCO2)on1`, the “% Inhibition” value is reported as -4% and the Z score was found to be 0.49.
For `Cc1cc(CN(C)[C@H]2CCNC2=O)no1`, the “% Inhibition” value is reported as -3% and the Z score worked out at 0.56.
In the same order, the values of `COCCN1CC(=O)N[C@H]2CN(C3CCCCC3)C[C@@H]2OCc2cccc(c2)Oc2cc(ccc2OC)CCC1=O` are -8% and 1.51.
Taken in the same sequence, the figures for `O=C(c1nccc2ccccc12)N1CCC(c2nnco2)CC1` were -9% and 0.91.
In the same order, the values of `COc1ccc(CCN2CC(=O)N3Cc4ccccc4C[C@@H]3C2=O)cc1` are -6% and 1.08.
`CCOC(=O)c1ncoc1-c1ccccc1C(=O)N1CCN(c2cccc(C(F)(F)F)c2)CC1`: the “% Inhibition” value came out at 9% and the Z score is -1.46.
In the same order, the values of `O=C(CC1CC2CCC1C2)Nc1ccccc1-c1nc2ccccc2s1` (centres undefined) are -20% and 1.69.

Usually % Inhibition stands for the drop in the measured response relative to a control, in per cent.
